# PubChem BioAssay AID1768 (National Center for Advancing Translational Sciences (NCATS), 2009)
# “And” between values parts separate entries of the source, which are not always exact repeats. Equal entries are not always repeated. The whole screen tested about 270,000 compounds, of which about 620 (0.23%) were called active. This list was built around the results that the source calls inconclusive (neither active nor inactive); the mix of calls is not that of the screen. Calls follow the shape of the dose curve; as a rule, active = well fitted inhibition curve with a large enough effect in the polarisation, with a control signal flat (not every such curve was filed as active); inconclusive = small, poorly fitted or top-dose-only effect, or effect the other way, or a change in a side signal; inactive = no such curve, though single readings can be large or run the other way; the % refers to the polarisation. Potencies of inconclusive entries are doubtful fits and often do not repeat. A note “side channel” means that the fit belongs to a control or component signal, not to the main read-out.
# Biological target: Menin (Homo sapiens) (UniProt O00255)
# Sequence of UniProt O00255 (O00255 whole entry, looked up): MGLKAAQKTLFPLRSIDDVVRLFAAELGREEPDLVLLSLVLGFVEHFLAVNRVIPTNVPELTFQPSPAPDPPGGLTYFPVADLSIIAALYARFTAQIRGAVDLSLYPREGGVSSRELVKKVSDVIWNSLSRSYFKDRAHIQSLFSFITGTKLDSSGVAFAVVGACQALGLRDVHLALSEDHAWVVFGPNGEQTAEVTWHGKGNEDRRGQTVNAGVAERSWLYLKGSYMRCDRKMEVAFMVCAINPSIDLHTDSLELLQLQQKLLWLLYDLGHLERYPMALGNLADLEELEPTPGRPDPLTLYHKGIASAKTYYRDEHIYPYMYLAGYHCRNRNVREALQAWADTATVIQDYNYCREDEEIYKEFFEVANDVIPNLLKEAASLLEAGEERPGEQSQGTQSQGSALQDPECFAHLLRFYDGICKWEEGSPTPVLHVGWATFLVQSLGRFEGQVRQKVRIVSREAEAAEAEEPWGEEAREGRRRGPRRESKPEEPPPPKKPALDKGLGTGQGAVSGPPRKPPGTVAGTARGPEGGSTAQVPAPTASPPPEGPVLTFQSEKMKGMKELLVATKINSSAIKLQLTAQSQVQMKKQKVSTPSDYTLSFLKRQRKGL
# Assay: qHTS Assay for Inhibitors Targeting the Menin-MLL Interaction in MLL Related Leukemias: Competition With Texas Red Labeled MLL-derived Mutant Peptide
# Details: fluorescence polarization; series mostly up to 61.6 µM
# Potency is read from the fitted curve at half-maximal effect; tags tell the direction and shape of the fitted curve or compound fluorescence and quenching.
row,Structure (SMILES),Potency
1,Oc1ccc(/C=N/Nc2ccccc2)cc1,"inconclusive: 17.8 µM [quencher, side channel, partial curve]"
2,CCCC(c1nnnn1CC1CCCO1)N1CCN(c2nc3ccccc3s2)CC1 (centres undefined),"inconclusive: 39.8 µM [inhibitor, single point]"
3,O=C(COc1ccc(Br)cc1CNCCc1ccccc1)NCc1ccccc1,"inconclusive: 7.08 µM [fluorescent, side channel, partial curve]"
4,COc1cc(OC)cc(-n2c3nc4ccccc4nc3c3c(=O)n(CC4CCCO4)cnc32)c1 (centres undefined),inactive
5,C=CCNC(=S)N/N=C/c1ccc(-c2cccc([N+](=O)[O-])c2)o1,"inconclusive: 6.31 µM [quencher, side channel, partial curve]"
6,CN(Cc1ccccc1)C(=O)C1CCCN(Cc2cccc(Cl)c2)C1 (centres undefined),"inconclusive: 7.08 µM [fluorescent, side channel, full curve, poor fit]"
7,CCCCCCCCC1=NCCc2c1[nH]c1ccccc21,"inconclusive: 14.1 µM [fluorescent, side channel, partial curve]"
8,[2H]C([2H])(CCOS(N)(=O)=O)c1ccccc1,inactive
9,Cc1ccc(-n2c(SCC(N)=O)nc3c(oc4ccccc43)c2=O)cc1,"inconclusive: 2 µM [inhibitor, full curve, poor fit]"
10,Cc1ccc(C)c(OCC(O)CN2CCN(CCN3C(=O)c4cccc5cccc(c45)C3=O)CC2)c1 (centres undefined),"inconclusive: 3.55 µM [inhibitor, partial curve]"
11,O=C(O)c1ccc(NC(=O)c2ccc(Cl)cc2)c(NC(=O)c2ccc(Cl)cc2)c1,"inconclusive: 28.2 µM [quencher, side channel, partial curve]"
12,N#CCCN(C(=O)COC(=O)CCc1ccccc1)c1ccccc1,"inconclusive: 28.2 µM [inhibitor, partial curve]"
13,CCOC(=O)/C(=C\c1cccc(O)c1)c1nc2sc(C)c(C)c2c(=O)[nH]1,"inconclusive: 10 µM [fluorescent, side channel, partial curve]"
14,CCCNC(=O)OC[C@@H]1O[C@H](CCO/N=C(\C)CCN2CCc3nc(CC)c(CC)cc3C2)C=C[C@@H]1Oc1ccc(OC)cc1,"inconclusive: 3.98 µM [inhibitor, single point]"
15,COc1ccccc1-c1cc(C(F)(F)F)n2ncc(C(=O)N3CCc4ccccc4C3)c2n1,"inconclusive: 3.16 µM [fluorescent, side channel, full curve, poor fit]"
16,Cc1ccc2[nH]c(C(=O)O)c(NC(=O)CN3CCN(c4cccc(C)c4C)CC3)c2c1,"inconclusive: 14.1 µM [quencher, side channel, partial curve]"
17,Cc1cc(C=NCCCO)c(C)n1-c1cc(Cl)ccc1Cl,"inconclusive: 31.6 µM [inhibitor, single point]"
18,Nc1ccc(C(=O)O)c(O)c1 (tested in a mixture with another compound),inactive
19,N#CCSc1nc(-c2ccccc2)nc2ccccc12,"inconclusive: 39.8 µM [inhibitor, single point]"
20,CC(C)(C)c1ccc(C(=O)C2CCCN(C(=O)CN3CCCC3=O)C2)cc1 (centres undefined),"inconclusive: 10 µM [fluorescent, side channel, partial curve]"
21,COCCCN1C(=O)C(=O)/C(=C(/O)c2ccc(S(=O)(=O)N3CCOCC3)cc2)C1c1ccc(C(C)C)cc1 (centres undefined),"inconclusive: 17.8 µM [quencher, side channel, single point]"
22,Fc1ccccc1-c1nc2ccccc2[nH]1,inactive
23,O=[N+]([O-])c1cc(Br)c(Nc2ccccc2)c([N+](=O)[O-])c1,"inconclusive: 25.1 µM [quencher, side channel, single point]"
24,CN1CCN(/N=C/c2nc(-c3cccc([N+](=O)[O-])c3)n3ccccc23)CC1,inactive
25,CC(C)OCCCNC(=O)C(NS(=O)(=O)c1ccc2c(c1)c(=O)n(C)c(=O)n2C)c1ccccc1 (centres undefined),"inconclusive: 2.82 µM [inhibitor, full curve]"
26,C=C1CCC[C@]2(C)C[C@H]3OC(=O)C(CN4CCCCC4CO)[C@H]3CC12 (some centres undefined),"inconclusive: 44.7 µM [inhibitor, partial curve, poor fit]"
27,COc1ccc(C)cc1NC(=O)c1cccc(-c2ccc(OC(C)=O)cc2)c1,"inconclusive: 28.2 µM [quencher, side channel, single point]"

row,Structure (SMILES),Potency
1,COc1ccc(OCc2nc3c4c(ncn3n2)-c2ccccc2CC42CCCC2)cc1,inactive
2,COC(=O)Cn1c(=O)c2c(nc(Br)n2Cc2ccccc2Cl)n(C)c1=O,"inconclusive: 35.5 µM [inhibitor, single point]"
3,C=CCN1C(=O)/C(=C/c2ccc(OC(C)=O)c(OCC)c2[N+](=O)[O-])SC1=S,"inconclusive: 2 µM [quencher, side channel, partial curve]"
4,COCCN1C(=O)/C(=C/c2cc3c(cc2Br)OCO3)NC1=S,"inconclusive: 39.8 µM [quencher, side channel, single point]"
5,CCCCNC(=O)COC(=O)c1c2c(nc3ccccc13)CCC2,"inconclusive: 11.2 µM [quencher, side channel, partial curve]"
6,COc1ccc(-c2nn(-c3ccccc3)cc2/C=C/C(=O)OCC(=O)Nc2ccc(C#N)cc2)cc1,"inconclusive: 11.2 µM [quencher, side channel, partial curve]"
7,O=C(N/N=C1\CC(c2ccccc2)Oc2ccccc21)c1ccc(O)cc1 (centres undefined),"inconclusive: 8.91 µM [quencher, side channel, full curve, poor fit]"
8,COc1ccc(-c2csc(CCn3nc(C)cc3C)n2)cc1,"inconclusive: 6.31 µM [fluorescent, side channel, partial curve]"
9,COc1ccc(S(=O)(=O)N2CCOCC2)cc1N=Nc1sc(N)nc1-c1ccccc1,"inconclusive: 14.1 µM [quencher, side channel, partial curve]"
10,O=C(C1=C[C@@H](c2ccc(Br)cc2)C[C@@H](OCCCCO)O1)N1CCN(Cc2ccc3c(c2)OCO3)CC1,"inconclusive: 3.16 µM [fluorescent, side channel, partial curve]"
11,OC(CN1CCCCCC1)CN(c1ccccc1)c1ccccc1 (centres undefined),"inconclusive: 11.2 µM [inhibitor, partial curve]"
12,COc1ccc(-c2csc(Nc3ccc(C)cn3)n2)cc1OC,"inconclusive: 20 µM [quencher, partial curve]"
13,O=C(Nc1ccc2c(c1)C(=O)OC2)Nc1cccc2ccccc12,"inconclusive: 1.12 µM [inhibitor, full curve, poor fit]"
14,Cc1ccc(N/C(N)=N/c2nc(C)cc(N3CCCCC3)n2)c(C)c1,"inconclusive: 1.58 µM [inhibitor, partial curve]"
15,Cc1cc(OC(C)C)nc(NCc2ccccc2)n1,"inconclusive: 2.82 µM [inhibitor, full curve, poor fit]"
16,COc1cccc([C@@H]2Oc3ccc(OC)cc3C[C@H]2OC(=O)N[C@H]2CCCc3ccccc32)c1,inactive
17,Cc1cc(O)c(-c2cc(C(=O)Nc3ccc(S(=O)(=O)N4CCOCC4)cc3)[nH]n2)cc1C,"inconclusive: 2.51 µM [quencher, side channel, full curve]"
18,CCOC(=O)N1CCC(=C2c3ccc(Cl)cc3CCc3cccnc32)CC1,"inconclusive: 10 µM [fluorescent, side channel, partial curve] and inconclusive: 12.6 µM [fluorescent, side channel, partial curve] and inconclusive: 3.55 µM [fluorescent, side channel, full curve]"
19,CC1=NC(=O)C(N=Nc2cccc(O)c2)N1c1ccccc1 (centres undefined),"inconclusive: 28.2 µM [quencher, side channel, partial curve]"
20,COc1cc(C(=S)N2CCN(c3cccc(Cl)c3)CC2)ccc1O,"inconclusive: 39.8 µM [quencher, side channel, single point]"
21,CCCOc1ccccc1NS(=O)(=O)c1ccc2[nH]c(=O)[nH]c2c1,"inconclusive: 15.8 µM [inhibitor, partial curve]"
22,Cc1cc(C(=O)COC(=O)C2CCN(C(=O)c3ccc(Cl)cc3)CC2)c(C)n1CC1CCCO1 (centres undefined),"inconclusive: 15.8 µM [fluorescent, side channel, partial curve]"
23,O=C(Cn1c(=O)n(Cc2ccco2)c(=O)c2ccccc21)Nc1cccc(Cl)c1,"inconclusive: 11.2 µM [quencher, side channel, partial curve]"
24,CCCN1C(=O)/C(=C/c2ccc(C)o2)SC1=Nc1ccc(OCC)cc1,"inconclusive: 39.8 µM [quencher, side channel, single point]"
25,O=c1c(-c2ccc3c(c2)OCCO3)c(C(F)(F)F)oc2cc(O)cc(O)c12,"inconclusive: 20 µM [quencher, side channel, single point]"
26,COc1cc(O)c2c(=O)cc(-c3ccc(OC)c(-c4c(O)cc(O)c5c(=O)cc(-c6ccc(O)cc6)oc45)c3)oc2c1,"inconclusive: 2.82 µM [quencher, side channel, full curve, poor fit]"
27,CCN(CC)C(=O)Oc1ccc2c(c1)O/C(=C\c1ccco1)C2=O,"inconclusive: 31.6 µM [quencher, side channel, single point]"
